Assay [1] addresses T1, human CD25 (IL-2Rα) (human, UniProt P01589 22-213).
T1 chain: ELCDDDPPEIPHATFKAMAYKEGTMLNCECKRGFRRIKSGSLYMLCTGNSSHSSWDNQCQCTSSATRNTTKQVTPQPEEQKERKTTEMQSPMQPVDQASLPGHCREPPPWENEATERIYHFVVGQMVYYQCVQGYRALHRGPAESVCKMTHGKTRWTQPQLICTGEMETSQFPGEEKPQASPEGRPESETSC
Description: Biacore; pH 6.0. Background: Surface plasmon resonance follows binding to a sensor surface in real time, without labels.

The target in assay [2] is T1, human CD25 (IL-2Rα). Description: Biacore; pH 7.4.

B1: XENP14135 (wild-type IL-2 with C125S mutation) (ligand)
chain: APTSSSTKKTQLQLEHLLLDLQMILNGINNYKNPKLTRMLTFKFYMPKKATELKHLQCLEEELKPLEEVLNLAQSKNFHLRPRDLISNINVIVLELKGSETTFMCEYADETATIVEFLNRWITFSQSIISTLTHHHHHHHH
As usually defined, the Kd is the concentration at which binding is half-saturated. A low value points to a tighter complex. B1: the Kd was 167 nM with human CD25 (IL-2Rα) [1] and 15.6 nM with human CD25 (IL-2Rα) [2].

B2: XENP14142 (variant IL-2 with R38I and C125S) (ligand)
chain: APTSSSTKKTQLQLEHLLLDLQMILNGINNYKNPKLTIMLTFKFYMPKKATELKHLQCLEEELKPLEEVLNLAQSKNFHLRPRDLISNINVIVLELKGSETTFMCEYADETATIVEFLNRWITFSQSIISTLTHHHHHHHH
As for B2, the Kd amounted to 18.3 nM in the assay with human CD25 (IL-2Rα) [1] and 49.8 nM with human CD25 (IL-2Rα) [2].

B3: XENP14144 (R38L) (ligand)
chain: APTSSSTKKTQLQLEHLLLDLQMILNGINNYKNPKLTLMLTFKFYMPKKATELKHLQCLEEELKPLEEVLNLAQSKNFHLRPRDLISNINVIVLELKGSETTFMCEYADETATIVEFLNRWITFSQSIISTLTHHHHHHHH
As to B3, the dissociation constant Kd was determined as 17.7 nM in the assay with human CD25 (IL-2Rα) [1] and 39.1 nM with human CD25 (IL-2Rα) [2].

The values above are taken from patent publication US20250092108A1 (published 2025).
